For 120 sequences, switch fluorescence ratio results are on record in the supplement of paper PMC10126150.

The series relates to ATP. As to the kind of experiment: switch fluorescence ratio, 500 uM ATP over buffer (Cy3 cluster intensity, sum of 5 cycles each) (fold (ratio)); higher = stronger signal-on switching upon ATP binding; sequences stand for … in TCGTCGGCAGCGTCAGATGTGTATAAGAGACAGTTTTTTTTTTTTTTTTTTTTTTTTT…TC. Conditions: aptamer strand: ATP DNA aptamer (quencher-CACCTGGGGGAGTATTGCGGAGGAAGG + anchor), 100 nM annealed; ATP concentration: 500 uM; one replicate. Put shortly:
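Exposure to 500 uM ATP lasted 15 min at 22 °C before imaging, and a selection-buffer image was taken beforehand, for Cy3-labelled switching-strand clusters on a modified Illumina MiSeq flow-cell annealed to 100 nM quencher-labelled ATP aptamer. Five buffer/ATP cycles were run with NaOH stripping and re-annealing between them. The fluorescence ratio per cluster is summed target-cycle over summed buffer-cycle Cy3 intensity, averaged per switch-domain sequence. Clusters outside 100-1000 RFU were excluded.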

Values marked as one replicate rest on one cluster of the flow cell; about a third of the high ones do not repeat.

Take TTATTACAGA: the switch fluorescence ratio was found to be 0.988. Consider TAAGGATAGA, for which the switch fluorescence ratio was determined as 1.02. Consider CGCATTTGGC, for which the switch fluorescence ratio turned out to be 1.25. As to TAGCTGGCTT, the switch fluorescence ratio was 0.98. ACTACCTCCC: the switch fluorescence ratio was 1.61. TAGTATTATC: the switch fluorescence ratio was determined as 1.04. For TGTAGTCCTG, the switch fluorescence ratio amounted to 0.969. For CTTAGCTGCC, the switch fluorescence ratio was 1.15.

Take AAGGTCAATA: the switch fluorescence ratio was determined as 1.01. As for TCATCTGGAG, the switch fluorescence ratio is 1.03. Consider CCAGTATA, for which the switch fluorescence ratio is 0.997. With GCATTCTCTT the figure was 1.11; with TGGCAAGTTT, 1.06; with CATGTATTCT, 0.984. For GTTATTTCGG, the switch fluorescence ratio worked out at 0.981. As to GGCTCTAGGC, the switch fluorescence ratio was 1.03. With TCAAGGTGCT the figure was 1.02; with AGCTTCCGAT, 2.87; with CAATTAGCTT, 0.996. With CATTTGGTGC, the switch fluorescence ratio was determined as 1.03.

Regarding GGTGTGGAG, the switch fluorescence ratio was 0.997.

On to GTCAAAGAGC, for which the switch fluorescence ratio is 0.971. With CGAATGCAGT the figure was 0.978. Turning to GTAGTGATAA, the switch fluorescence ratio was 1.29.

Take GCGGATCACC: the switch fluorescence ratio was 1.02. For ATCGCATTGT, the switch fluorescence ratio was 1.08. With GATGCCCTTA, the switch fluorescence ratio amounted to 1.02. On to TGACCCGAGG, for which the switch fluorescence ratio stood at 1.05. Take AGCTTGAGTT: the switch fluorescence ratio is 0.93. GATGGAATAA: the switch fluorescence ratio was determined as 1.11. Consider GCAAAACGGT, for which the switch fluorescence ratio is 1.03. With GTCTGACTGA the figure was 1.01; with GAGCGGTAAG, 0.991; with GACATCTTCA, 1.05.

Regarding GGACGCGGGA, the switch fluorescence ratio turned out to be 1.08.

As for CAGAAAAGGG, the switch fluorescence ratio is 1.75. The result for GTGAAATTAA reads 0.986; that for GTAGAAGGAA, 1.01; that for CTAGGCTGGT, 0.972.

On to TCGGCAGGG, for which the switch fluorescence ratio was 0.98.

In the case of CACAACGCAG, the switch fluorescence ratio was 1.05. In the case of ATCCATACTT, the switch fluorescence ratio amounted to 0.996.

As for TTAGTTCCC, the switch fluorescence ratio was 1.01.

Turning to TACGGCGATT, the switch fluorescence ratio amounted to 1.02.

Consider GAGATTGGTA, for which the switch fluorescence ratio stood at 1.03.

Consider GTAAGGTATC, for which the switch fluorescence ratio was 0.958. For the sequence GACTGGTTAG, the switch fluorescence ratio worked out at 0.994. With ATGGATGAGG, the switch fluorescence ratio stood at 1.02. For the sequence TTGTACTTCA, the switch fluorescence ratio amounted to 1.08. On to ACTGGCTCCG, for which the switch fluorescence ratio was 1.52. Turning to GTTGCGATTA, the switch fluorescence ratio was found to be 1.02.

On to AGGAGATTTC, for which the switch fluorescence ratio was found to be 1.07. In the case of TCATGTGCTT, the switch fluorescence ratio stood at 0.979. Turning to TGGTAATTGT, the switch fluorescence ratio amounted to 0.973. With ACTGCTCTGC, the switch fluorescence ratio was determined as 1.01. CCATTCCGGC: the switch fluorescence ratio came out at 1.21. Take TGACCTCGCC: the switch fluorescence ratio stood at 1.41.

On to GTAATTTGGA, for which the switch fluorescence ratio came to 0.977. For GATCCGTGCG, the switch fluorescence ratio amounted to 1.02. In the case of CCCCAGTGGG, the switch fluorescence ratio stood at 1.99.

For CGTTTGAGTA, the switch fluorescence ratio is 0.956. Take GCGGTCCGAC: the switch fluorescence ratio was 1.09. As for ATTGATAAGA, the switch fluorescence ratio was found to be 1.04. In the case of GCAGCGGGCA, the switch fluorescence ratio was 0.985. For ACGGTTCTGG, the switch fluorescence ratio was determined as 0.988. Take TATCCGGGC: the switch fluorescence ratio is 1.07. As for GGGGATCACG, the switch fluorescence ratio was 1.01. As for GTGTTATGCC, the switch fluorescence ratio was found to be 0.955. The result for GGGATGCTAG reads 0.939; that for GGACGCGGAG, 0.986; that for TGAATCAGCG, 1.1. CTTAGGTCGA: the switch fluorescence ratio stood at 0.966. With ATAGGCTGGA the figure was 1.05. In the case of TGAACATACA, the switch fluorescence ratio is 1.28.

Regarding ATAAAGAGCT, the switch fluorescence ratio came to 1.06.

Consider CTCGACTCGC, for which the switch fluorescence ratio came out at 1.08.

As for TCCTAGGGGC, the switch fluorescence ratio stood at 1.1.

On to GCCAGTAGCT, for which the switch fluorescence ratio amounted to 1.01.

AGCACCTACG: the switch fluorescence ratio is 1.56.

CGCAGTTATG: the switch fluorescence ratio came to 1.06.

As to GTGGCATTAC, the switch fluorescence ratio came out at 3.34. Regarding GAAAGCGGCC, the switch fluorescence ratio was 2.59. Take CAATAGCCTC: the switch fluorescence ratio was found to be 1.03.

As to TGAAGCTAGG, the switch fluorescence ratio was 0.999. For the sequence CGTGCACTCG, the switch fluorescence ratio worked out at 1. AATACTCCTG: the switch fluorescence ratio amounted to 1.44.

For the sequence CAGTCAGACG, the switch fluorescence ratio is 1.02.

As for TTTAAAGCTA, the switch fluorescence ratio was determined as 1.03. With GAAATTATCT the figure was 1.03.

CCCAAGTCTC: the switch fluorescence ratio came out at 1.14. Consider CACATAGAGT, for which the switch fluorescence ratio amounted to 1.06. Turning to GGGACTAAGG, the switch fluorescence ratio is 1.03. For CTCGGAGTAT, the switch fluorescence ratio stood at 1.07.

In the case of GTGGATTAGC, the switch fluorescence ratio was 0.997. With GCGAGCTT, the switch fluorescence ratio was determined as 0.982. Take AGCGATGTTG: the switch fluorescence ratio worked out at 0.961.

In the case of TATTAGACCG, the switch fluorescence ratio came to 0.996. As to GGGTGTGTCA, the switch fluorescence ratio was determined as 0.975. Regarding GTTAGCGCAA, the switch fluorescence ratio was 2.46.

Turning to GTTTGGCCAG, the switch fluorescence ratio was 1.04. As to TTCCAACAG, the switch fluorescence ratio is 1.03. With TCATCAATGT the figure was 0.978; with GATTCAGTAG, 1.03. In the case of ATCAATGTAT, the switch fluorescence ratio was 0.968. Take GTTGTTGGTA: the switch fluorescence ratio is 0.986. As for TCGACGTTCT, the switch fluorescence ratio is 1.04. On to CTTATCACAC, for which the switch fluorescence ratio stood at 1.01.

Take TGCCCTGCGG: the switch fluorescence ratio was determined as 1.02. Turning to TGATATACCA, the switch fluorescence ratio came to 1.05. With GTAGTGTGTT, the switch fluorescence ratio came out at 0.979.

As to AATTTGATG, the switch fluorescence ratio amounted to 1.01.

With CACAATGACA, the switch fluorescence ratio is 1.12. As for GATCGGGGAG, the switch fluorescence ratio amounted to 1.02.

Take ACATTCGGG: the switch fluorescence ratio is 0.982.

On to ATCACCGAGT, for which the switch fluorescence ratio is 1.02. In the case of TGTAAAATGG, the switch fluorescence ratio came out at 1.03. Regarding TGGTGTCATG, the switch fluorescence ratio came to 0.964.

As to ATTTTCTGCG, the switch fluorescence ratio stood at 0.944. Take AAACACTTCG: the switch fluorescence ratio is 1.12. With CATTTCCGAC the figure was 1.87.
